In PubChem BioAssay AID1345083 (National Center for Advancing Translational Sciences (NCATS), 2018):
In all, about 94,000 compounds went through this assay and about 6,200 (6.6%) were called active. Inconclusive results, whose numbers are uncertain, are shown with a selection of clear calls. Calls come from the whole dose curve; as a rule, active = well fitted inhibition curve with a large enough effect; inconclusive = small, poorly fitted or top-dose-only effect; inactive = flat fitted curve, though single readings scatter. A potency beside an inconclusive call is a rough fit, not a confirmed value.

Assay: Cytotoxic Profiling in HEK 293 Cell Line of Diverse Libraries Using Quantitative High-Throughput Screening; note: nearly all actives have a fitted effect of over 60% in size
Conditions: HEK 293 viability, ATP luminescence (CellTiter-Glo), 48-72 h; series mostly up to 115 µM
In short: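 Pintool-delivered compounds were incubated with HEK 293 cells (250 cells/well) at 37 degree Celsius for 48 or 72 hr. ATP-dependent luminescence (CellTiter-Glo) then reported remaining viable cells.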
Potency is the fitted concentration of half-maximal effect; tags give direction and shape of the fitted curve.

Row | Structure (SMILES) | Potency
1 | O=C(NC1CC1)[C@@H]1CN(Cc2ccc(OC(F)(F)F)cc2)C[C@H]1CO | inconclusive: 39.8 µM [inhibitor, partial curve, poor fit]
2 | Cc1ccc(CN2C(=O)NC3(CCCN(C(=O)c4cc(F)ccc4F)C3)C2=O)cc1 (configuration not stated) | inconclusive: 89.1 µM [inhibitor, single point]
3 | COc1ccc(F)cc1CN1CCCC(CO)(CC2CC2)C1 (configuration not stated) | inconclusive: 56.2 µM [inhibitor, partial curve, poor fit]
4 | Cc1ccc(C(=O)NCCn2cccc2-c2nc(-c3ccc4c(c3)OCO4)no2)cc1C | inconclusive: 22.4 µM [inhibitor, full curve, poor fit]
5 | COc1ccccc1NC(=O)Cn1c(-c2cccc(Cl)c2)nc(C)c(CCO)c1=O | inconclusive: 25.1 µM [inhibitor, full curve]
6 | O=C(NCCc1ccccc1)N1CCC(Oc2ccc(-c3noc(C4CC4)n3)cc2)C1 (configuration not stated) | inconclusive: 31.6 µM [inhibitor, partial curve, poor fit]
7 | O=C(C1CC1)N1CCC(c2nn(-c3ccccc3)c(=O)[nH]2)CC1 | inactive
8 | COc1ccc(NC(=O)c2ccc(-c3ncc4cnc(C5=CCOCC5)cn34)cc2)cn1 | inconclusive: 100 µM [inhibitor, partial curve]
9 | CNC(=O)CCn1ncc2cc(OCc3ccccc3-c3cccc(C)c3)ccc21 | active: 100 µM
10 | CC(=O)N[C@@H]1C=C[C@@H](c2c(C)nn(-c3ccc(C(C)(C)C)cc3)c2C)C1 | inconclusive: 56.2 µM [inhibitor, full curve, poor fit]
11 | COc1ccc(NC(=O)c2ccc3c(c2)NC(C)(COc2ccccc2)CO3)cc1OC (configuration not stated) | inconclusive: 31.6 µM [inhibitor, full curve, poor fit]
12 | O=C(Cc1cccs1)N1CCCn2cc(-c3ccccc3)nc21 | inconclusive: 39.8 µM [inhibitor, full curve]
13 | O=C(NCc1ccccc1Cl)C1CCCN(Cc2cccc(-c3ccc(F)cc3F)c2)C1 (configuration not stated) | active: 44.7 µM
14 | O=C(NCc1cnn(Cc2ccccc2)c1)c1ccc2oc(-c3cccc(F)c3)nc2c1 | active: 7.08 µM
15 | Cn1cc(CN2CCCC23CCN(c2ccnc4c(C(F)(F)F)cccc24)CC3)cn1 | inconclusive: 79.4 µM [inhibitor, partial curve, poor fit]
16 | CC1CCN(c2ccc(CNC(=O)C(C)C3CCOCC3)cc2)CC1 (configuration not stated) | inconclusive: 39.8 µM [inhibitor, single point]
17 | Cc1noc(C)c1CCCNC(=O)c1ccc(NC[C@H]2C[C@H]3C=C[C@H]2C32CC2)nc1 | inconclusive: 50.1 µM [inhibitor, partial curve, poor fit]
18 | CCN(Cc1cnn(CC)c1)C(=O)CN1CC2CC(C1)[C@H]1CCCC(=O)N1C2 (some centres not stated) | inactive
19 | Cc1ccsc1C(=O)N1CCC(c2nc(CCOc3ccc(F)cc3)no2)C1 (configuration not stated) | inconclusive: 56.2 µM [inhibitor, partial curve, poor fit]
20 | CCCn1cc(CNC(=O)c2ccc(CC3CCCNC3)cc2)cn1 (configuration not stated) | inconclusive: 50.1 µM [inhibitor, partial curve, poor fit]
21 | Cn1nc(CN2CCOCC2)c2c1CCN(S(=O)(=O)c1ccc3c(c1)CCC3)C2 | inactive

Row | Structure (SMILES) | Potency
22 | CN(C)c1ccc(CN2CCOC[C@H]2c2ncc(-c3ccc(F)cc3)[nH]2)cc1 | inconclusive: 100 µM [inhibitor, partial curve]
23 | O=C1N2CCCC2CN1C1CCN(Cc2cccc(Cl)c2)CC1 (configuration not stated) | inactive
24 | Cc1cccc(CN2CCNc3cnc(Oc4ccccc4)cc3C2)c1 | active: 89.1 µM
25 | O=C(CN1C(=O)C(c2ccccc2)=NC12CCCC2)NC1CCCC1 | inconclusive: 22.4 µM [inhibitor, full curve]
26 | Cc1ccc2c(n1)N(C)[C@H](CO)CCN(Cc1ccc(Cl)cc1)C2 | active: 70.8 µM
27 | CCn1c(C2CCCNC2)nn(Cc2ccc(C(=O)NC)o2)c1=O (configuration not stated) | inactive
28 | Cc1nc(CN2C(=O)OC3(CCN(C(=O)Cc4ccc5c(c4)OCO5)CC3)C2(C)c2ccccc2)cs1 (configuration not stated) | inactive
29 | O=C1CCC2(CCN(C(=O)c3cccs3)CC2)CN1CCc1ccncc1 | inconclusive: 79.4 µM [inhibitor, single point]
30 | O=C([C@@H]1C[C@H](Oc2cccnc2)CN1C(=O)c1nccc2ccccc12)N1CCOCC1 | inconclusive: 79.4 µM [inhibitor, single point]
31 | CC1CCCC(C)N1C(=O)c1ccc2oc(-c3ccnc(Cl)c3)nc2c1 (configuration not stated) | inactive
32 | O=C(Nc1ccc(Cl)cc1)c1nc2c(o1)CCN(Cc1ccc3cn[nH]c3c1)CC2 | active: 44.7 µM
33 | CC(C)COC(=O)N[C@@H]1C[C@@H]2CO[C@H](c3ccccc3)C[C@@H]2C1 | inconclusive: 56.2 µM [inhibitor, partial curve, poor fit]
34 | COC(=O)CN1C(=O)N(CCc2ccccc2)C2(CCN(Cc3ccccn3)CC2)C1=O | inactive
35 | Cc1ccc(Nc2ccc3c(n2)CN(C)C(=O)CO3)c(C)c1 | inconclusive: 70.8 µM [inhibitor, partial curve]
36 | O=C(NCc1nnc2n1C(C(=O)O)CC2)c1ccc(F)cc1 (configuration not stated) | inactive
37 | COc1cccc(-c2cccc(C(=O)N3CCCC3C(=O)NCc3ccccc3)c2)c1 (configuration not stated) | inconclusive: 56.2 µM [inhibitor, partial curve, poor fit]
38 | CN(c1ccccc1)c1cc(=O)c2ccnc(-c3ccc(CO)cc3)c2o1 | inconclusive: 15.8 µM [inhibitor, full curve, poor fit]
39 | CCCN(CC1CC1)C(=O)CCC1CCN(S(=O)(=O)c2ccccc2)CC1 | inconclusive: 50.1 µM [inhibitor, partial curve, poor fit]
40 | CN1CCCCC(CC(=O)Nc2ccc(OC(F)(F)F)cc2)C1=O (configuration not stated) | inactive
41 | COc1ccc(NC(=O)c2nc3sccn3c2-c2ccc(OC)cc2)cc1 | inconclusive: 79.4 µM [inhibitor, partial curve, poor fit]
42 | CN(C)CCNC(=O)c1cnc2c(c1)N(Cc1ccccc1)CCC2 | inconclusive: 126 µM [inhibitor, single point]
